# Results from publication PMC6919601, “Identification of Plasmodium dipeptidyl aminopeptidase allosteric inhibitors by high throughput screening” (PLoS ONE, 2019).
# About 230 (0.21%) of roughly 110,000 compounds showed an effect of 50% or more. This is one part of the list.
# Biological target: DPAP1 (Plasmodium falciparum, UniProt Q8IIJ9)
# Assay: primary screen, percent inhibition; read by cleavage of a fluorogenic dipeptide substrate; higher = more effect of the substance
# Set-up: species or system P. falciparum D10 trophozoite lysates; single well
# 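Further: 30 min substrate incubation versus DMSO and 10 µM JCP410 controls.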
# Sequence of DPAP1 (Q8IIJ9 whole entry, looked up): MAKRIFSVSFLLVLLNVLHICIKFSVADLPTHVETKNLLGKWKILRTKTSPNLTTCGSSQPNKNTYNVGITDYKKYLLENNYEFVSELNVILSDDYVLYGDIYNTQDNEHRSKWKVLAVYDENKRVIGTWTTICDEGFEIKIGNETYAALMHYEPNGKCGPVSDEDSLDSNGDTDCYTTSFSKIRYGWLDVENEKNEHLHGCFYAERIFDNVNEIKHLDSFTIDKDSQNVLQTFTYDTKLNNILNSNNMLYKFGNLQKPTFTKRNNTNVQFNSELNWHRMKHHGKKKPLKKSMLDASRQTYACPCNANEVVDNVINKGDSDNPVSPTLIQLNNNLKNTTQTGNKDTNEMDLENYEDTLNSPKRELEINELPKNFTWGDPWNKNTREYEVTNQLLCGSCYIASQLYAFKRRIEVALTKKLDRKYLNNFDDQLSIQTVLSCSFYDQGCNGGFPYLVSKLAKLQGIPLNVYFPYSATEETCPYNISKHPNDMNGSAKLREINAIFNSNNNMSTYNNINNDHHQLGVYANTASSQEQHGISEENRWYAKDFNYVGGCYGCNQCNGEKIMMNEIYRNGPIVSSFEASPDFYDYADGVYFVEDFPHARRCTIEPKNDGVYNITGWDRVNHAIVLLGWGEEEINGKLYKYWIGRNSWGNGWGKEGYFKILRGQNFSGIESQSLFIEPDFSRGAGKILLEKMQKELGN
row,Compound,% Inhibition @ 10 uM
1,Cn1nc(-c2ccc(Cl)cc2)c2cc(C(=O)NCCCN3CCOCC3)sc21,-4.96%
2,CCOC(=O)c1c(NC(=O)c2cccnc2)sc(C(=O)OC)c1C,-1.42%
3,COc1ccccc1CNC(=O)C1CCC(CNS(=O)(=O)c2cccs2)CC1 (stereo not drawn),-0.0508%
4,O=C(Cn1nnc2sc3c(c2c1=O)CCCC3)NC1CCCCC1,2.04%
5,Cc1ccc(CN(C(=O)c2sc3ccccc3c2Cl)C2CCS(=O)(=O)C2)o1 (stereo not drawn),-4.64%
6,Cc1ccccc1OC(C)C(=O)Nc1ccccc1 (stereo not drawn),-4.02%
7,COC(=O)c1nc2n(n1)C(c1ccccc1OC)C1=C(O)CCCC1=N2 (stereo not drawn),-3.6%
8,COc1cc(OC)cc(-c2nc3n(n2)C(c2cccnc2)C(C(N)=O)=C(C)N3)c1 (stereo not drawn),1.96%
9,CCOc1ccc2nc(SCC(=O)N3CCN(C(=O)c4ccc(C)cc4)C3)sc2c1,6.49%
10,OC1=C2C(=Nc3ccccc3NC2c2cccc(O)c2)CC(c2cccs2)C1 (stereo not drawn),-6.92%
11,Cc1nc(O)nc(O)c1N1CCOCC1,-2.12%
12,CCCSc1nnc(N2C(=O)CC(c3ccc(F)cc3)C3=C2CC(C)(C)CC3=O)s1 (stereo not drawn),-1.05%
13,Cc1nn(-c2ccccc2)c(-n2cccc2)c1C(=O)NCCCc1ccccc1,-1.58%
14,CCOC(=O)N1CCN(C(=O)CN(C)S(=O)(=O)c2ccc(C)cc2)CC1,0.235%
15,Cc1noc(/C=C/N(C)C)c1S(=O)(=O)N(C)CC(=O)NC1CCCCC1,7.3%
16,O=c1c2c(nc(SCc3ccccc3)n1-c1ccccc1)-c1ccccc1CC21CCCC1,-3.93%
17,O=C(c1ccc(Cn2cc(Br)cn2)cc1)N1N=C(C(F)F)CC1(O)C(F)F (stereo not drawn),-1.36%
18,O=C1c2[nH]nc(-c3ccccc3O)c2C(c2cccc(Oc3ccccc3)c2)N1CCCO (stereo not drawn),-3.12%
19,Cc1ccc(NC(=O)c2ccncc2)cc1Cl,12.7%
20,COc1ccc2ccccc2c1C1NC(S)=NC(C)=C1C(=O)Nc1ccccc1 (stereo not drawn),-3.62%
21,O=C1NC(=O)C(=Cc2ccc(-c3ccc(Cl)c(Cl)c3)o2)C(=O)N1,4.08%
22,COc1ccc(/C=c2/[nH]c(=O)/c(=C\c3ccc(OC)cc3OC)[nH]c2=O)c(OC)c1,0.937%
23,CC(O)CNc1ncnc2c1cnn2C (stereo not drawn),4.3%
24,Cc1cccc(-c2nc(CS(=O)CC(=O)NCCN(C)C)c(C)o2)c1 (stereo not drawn),-4.71%
25,Cc1nnc(N2CCCC(C(=O)N3CCC4(CC3)OCCO4)C2)c2nn(-c3ccccc3)c(C)c12 (stereo not drawn),0.882%

row,Compound,% Inhibition @ 10 uM
1,O=C(CCN1C(=O)c2ccccc2C1=O)Nc1ccc(NC(=O)c2ccco2)cc1,-0.132%
2,CC1=CCC2C(=O)N(c3cccc(C(=O)NCc4ccccc4)c3)C(=O)C2C1 (stereo not drawn),-6.39%
3,COc1ccc([C@H]2NCC[C@@]3(O)CCCC[C@H]23)cc1O,1.34%
4,CCN(Cc1ccccc1)Cc1ccccc1O,-4.14%
5,CCOC(=O)c1cnc2ccc(C)cc2c1O,-6.22%
6,Cc1cc(N2CCOCC2)c2c(N)cc(C)c(C)c2n1,1.82%
7,CC(C)CC(Nc1ncnc2c1oc1ccccc12)C(=O)O (stereo not drawn),-7.35%
8,CCOc1cc(S(=O)(=O)NCc2nc3ccccc3[nH]2)ccc1Cl,-0.403%
9,Cc1ccc(/C=c2/sc3nc(=O)c(Cc4ccc(F)cc4)nn3c2=O)o1,-0.499%
10,CC1(C)N=C(N)NC(Nc2ccccc2Br)=N1,3.82%
11,COc1ccccc1C1CC(=O)NC(C)=C1C(=O)OCC(C)C (stereo not drawn),-6.91%
12,Cc1ccc(CNC(=O)C2CCCN(c3nnc(-n4cccc4)s3)C2)cc1 (stereo not drawn),-7.8%
13,CCn1cc(C(=O)NCc2cccnc2)c2cc(OC)c(OC)cc2c1=O,-4.86%
14,NC(=O)CSc1nnc(-c2cccs2)n1-c1ccccc1,2.12%
15,Cc1cc(C)c(N2CCC(=O)N2)c(C)c1,7.27%
16,O=C(CN1CCOCC1)c1csc2ccccc12,-0.63%
17,CCc1ccc(OCC(=O)Nc2cccc(NC(=O)c3ccccc3)c2)cc1,-3.98%
18,O=C1CN=C(c2cc([N+](=O)[O-])ccc2Cl)c2cc([N+](=O)[O-])ccc2N1,-0.424%
19,Cc1ccsc1C(C#N)NC(=O)C(Cc1c(F)cccc1F)NC(=O)c1ccc(C(C)(C)C)cc1 (stereo not drawn),-4.72%
20,CC(=O)c1ccc(N2CCN(Cc3cccs3)CC2)cc1,-3.8%
21,CN(C)CCN(Cc1ccccc1)Cc1ccc(F)cc1F,3.48%
22,c1ccc(CN2CCN(Cc3nnc(-c4ccc5c(c4)OCO5)o3)CC2)cc1,3.5%
23,CC1=C(C(=O)NCc2ccccc2Cl)C2(CCCCC2)OC1=O,1.55%
24,COc1ccc(Nc2nn(C)c3c(C)nc(C)c[n+]23)cc1,2.48%
25,COc1ccc(OC)c(CCNC(=O)c2c(C)nn(-c3ccccc3)c2-n2cccc2)c1,-1.58%

row,Compound,% Inhibition @ 10 uM
1,CC1=CC(C)C2(CO)COC(c3ccc4c(c3)OCO4)C1C2C (stereo not drawn),3.61%
2,COc1cc(NS(=O)(=O)c2ccc(F)cc2)c(OC)cc1Cl,-0.736%
3,COCC(=O)n1nc(-c2ccco2)nc1NCc1cccs1,-1.47%
4,Cc1nc(N2C(=O)c3oc4ccccc4c(=O)c3C2c2ccc(OCc3ccccc3)cc2)sc1C (stereo not drawn),-0.828%
5,C=CCCC1COC(c2ccc(C#N)cc2)OC1 (stereo not drawn),5.73%
6,O=C1c2cccc3cccc(c23)C(=O)N1Cc1ccccn1,0.0265%
7,Nc1ccc(Sc2ccc(N3C(=O)c4ccc(N)cc4C3=O)cc2)cc1,-3.34%
8,NC(=O)C1CCN(c2nc3c(S(=O)(=O)c4ccccc4)nnn3c3ccc(Cl)cc23)CC1,-6.68%
9,CC(C)NS(=O)(=O)c1ccc(OCC(=O)N2CCCCCC2)cc1,1.69%
10,OCCNc1ncnc2c1sc1nc(-c3ccccc3)c3c(c12)CCCC3,3.73%
11,CC1CC(Nc2ccccc2)c2ccccc2N1C(=O)Cc1ccccc1 (stereo not drawn),1.08%
12,C/C=C/CSc1nc2c(c(=O)[nH]c(=O)n2C)n1C/C=C/C,2.36%
13,O=C(CSc1c2c(nc3ccccc13)CCC2)Nc1cnc2ccccc2c1,-3.09%
14,Cc1ccccc1Cn1c(=O)n(Cc2ccccc2)c(=O)c2c(C)c(C(=O)N(C)C)sc21,-3.02%
15,CC1=C(C(=O)Nc2ccccc2C)C(c2cccs2)n2c(s/c(=C/c3cnn(C)c3)c2=O)=N1 (stereo not drawn),-2.99%
16,O=S(=O)(c1ccccc1)N1CCSC1c1ccccc1 (stereo not drawn),-3.6%
17,Cc1ccc(CN(CC(=O)NC(C)c2ccccc2)S(=O)(=O)c2ccccc2)cc1 (stereo not drawn),-1.61%
18,CCCn1c(=O)c2sccc2n2c(CCCC(=O)N3CCN(Cc4ccccc4)CC3)nnc12,-0.212%
19,CCS(=O)(=O)c1nc(S(=O)(=O)c2ccc(Cl)cc2)c(NCCCN(C)C)s1,1.15%
20,COc1ccc(CNC(=O)C2COc3ccccc3O2)cc1 (stereo not drawn),-7.63%
21,CC(C)CCn1cnc2c(cnn2-c2ccc(Cl)cc2)c1=O,-3.53%
22,CCCCC(=O)Nc1nc(-c2ccc(S(=O)(=O)N3CCOCC3)cc2)cs1,-2.06%
23,N#C/C(=C/C=C/c1ccccc1)c1nc(-c2ccc(F)cc2)cs1,-9.91%
24,COc1ccc(CCNCc2ccc(SC)cc2)cc1,-3.32%
25,O=C(Nc1ccncc1)c1nn2c(C(F)(F)F)cc(-c3cccs3)nc2c1Br,1.58%

row,Compound,% Inhibition @ 10 uM
1,Cc1c(CNC(=O)c2cc(-c3ccccc3)nc3ccccc23)cnn1C,-0.318%
2,N#CCNC(=O)[C@H](CCC(=O)Nc1ccccc1)NC(=O)c1ccc(Br)cc1,-1.41%
3,COc1ccc(-c2[nH]nc3c2C(c2ccc(C)o2)C(C#N)=C(N)O3)cc1 (stereo not drawn),5.9%
4,Cc1cccc2sc(N(CCCN(C)C)C(=O)c3ccc4ncsc4c3)nc12,-1.07%
5,CC1(C)CC2CC(C)(CN2C(=O)/C(=C\c2ccco2)NC(=O)c2ccc(Cl)cc2)C1 (stereo not drawn),5.37%
6,COc1ccc(CNCc2c(C(=O)O)n(Cc3ccc(OC)cc3)c3cc(OC)ccc23)cc1,6.42%
7,COc1cc(-c2nc3cc(C)ccn3c2N)ccc1O,-5.23%
8,c1ccc2c(CCc3ccncc3)c[nH]c2c1,6.14%
9,Clc1ccc(Cn2ncc3c(N4CCCCCC4)ncnc32)c(Cl)c1,5.31%
10,COc1ccc(C(C)NCc2ccccn2)cc1 (stereo not drawn),-5.67%
11,CCOC(=O)C(C(=O)Nc1cc(N(C)C)ccc1C)C1CCCCC1 (stereo not drawn),-2.42%
12,O=C(c1cc2c(s1)-c1ccc(Cl)cc1S(=O)(=O)C2)N1CCN(c2ccccn2)CC1,0.953%
13,COc1cccc(-n2c(S)nnc2CN2CCSCC2)c1,5.92%
14,COc1ccc(C(=O)n2nc(-c3ccco3)nc2NCc2ccc(F)cc2)cc1,-1.11%
15,N#Cc1ccccc1NS(=O)(=O)c1ccccc1[N+](=O)[O-],2.38%
16,Cn1nnc2c(N3CC=CCC3)nc(Cc3ccc(Cl)cc3Cl)nc21,-3.24%
17,CCOc1cc(CN2CCCN(C)CC2)ccc1O,2.47%
18,COc1ccc(-n2c(C)cc(/C=C3/C(=N)N4OC(C)=CC4=NC3=O)c2C)cc1Cl,0.317%
19,CCN(CC)C(=O)C1CCCN(Cc2ccc(OC)c(C)c2C)C1 (stereo not drawn),-0.197%
20,O=C(Cc1ccccc1)Nc1ccc(CN2CCOCC2)cc1,-0.737%
21,CN1CCCN(Cc2c(Cl)cccc2Cl)CC1,-0.0494%
22,Cc1ccc(-c2noc(CCC(=O)NC3CCN(Cc4ccccc4)CC3)n2)cc1,-4.03%
23,C=CCn1cc(C=C2C(=O)N(C)C(=O)N(C)C2=O)c2ccccc21,-3.21%
24,CCN(CC)C(=O)C1CCCN(Cc2ccc(N(C)C)cc2)C1 (stereo not drawn),-4.5%
